This is an account of results in the supplement of paper PMC9513381.

Recombinant human monoclonal antibodies (heavy:light variable regions). ELISA EC50 on the named antigen, from 10 µg/ml down; IC50 / IC90 against spike pseudovirus on 293T-ACE2 cells, 48 h; lower = stronger. Calls: IC50 above 1,000 ng/ml = non-neutralizing; EC50 above 1,000 ng/ml = non-binder. The source prints 1000 for neutralization that was not reached; it is given as >1000 ng/ml. Only binders of the Wuhan-Hu-1 domain have neutralization values.

In experiment [1] the target is SARS-CoV-2 Wuhan-Hu-1 spike pseudovirus. Nature of the experiment: pseudovirus neutralization IC50; higher = weaker neutralization. How it is done:
(§1)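 Single-round luciferase reporter pseudovirus mixed with antibody dilutions and put on 293T-ACE2 cells for 48 h; signal relative to no-antibody wells, four-parameter fit.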

Experiment [2] has the same target. As to the kind of experiment: pseudovirus neutralization IC90; higher = weaker neutralization. How it is done:
as §1

Experiment [3] concerns the target SARS-CoV-2 Delta (B.1.617.2) spike RBD. As to the kind of experiment: ELISA binding EC50; higher = weaker binding; ELISA of recombinant human antibody on coated antigen, from 10 µg/ml in fourfold dilutions; four-parameter fit.
Experiment [4] deals with SARS-CoV-2 Omicron BA.1 spike protein. The experiment is described as above.
The target in experiment [5] is SARS-CoV-2 Wuhan-Hu-1 spike receptor-binding domain. The description is as above.

B1: B1032 (protein)
chain 1: EVQLVESGGGLVQPGRSLRLSCEASGFTFEDFAMHWVRQAPGKGLEWVSGVSWNSGTIGYGDSVKGRFIIIRDNAKNSVYLQMNSLRPEDTAFYYCVKDMATYYKDISGTYGMDVWGQGTTVTVSS
chain 2: SYELTQTPSVSVAPGQTARITCVGNNIGSESVHWYQQKSGRAPVLVVYDDSDRPSGIPERFSGSTSGTTATLIINRVEAGDEAGYYCQVWDASSDHVVFGGGTKLTVL
As for B1, the “pseudovirus neutralization IC50” value in experiment [1] came out at 0.0145 µg/mL. Moreover, in experiment [2], the “pseudovirus neutralization IC90” value is 0.138 µg/mL. Further, the “ELISA binding EC50” value in experiment [3] was 0.011 µg/mL; in experiment [4] it was 0.00583 µg/mL; in experiment [5], 0.00269 µg/mL.

B2: B1022 (protein)
chain 1: QVQLVESGGGVVQPGRSLRLSCATSGFIFSSYGMHWVRQAPGKGLEWVADISYHGSNKYYADSVKGRFNISRDNSNKTLYLQMNSLRPEDTALYFCAKDLGQGILHFVQWSISRHGLDVWGQGTTVTVSS
chain 2: QSALTQPPSASGSPGQSVTISCTGTSSDVGGYNYVSWYQQHPGKAPKLLIYEVTKRPSGVPDRFSGSKSGNTASLTISGLQAEDEADYYCSSCAVSVIFGGGTKLTVL
For the molecule B2, in experiment [1], the “pseudovirus neutralization IC50” value was determined as 0.00934 µg/mL. In addition, the “pseudovirus neutralization IC90” value in experiment [2] is 0.106 µg/mL. The figures for the “ELISA binding EC50” value in experiment [3], in experiment [4] and in experiment [5] were more than 1 µg/mL, 0.0181 µg/mL and 0.00536 µg/mL, respectively.

B3: B1017 (protein)
chain 1: QVQLVQSGSEVKKPGSSVKVSCKASGGTFSSYSVTWVRQAPGHGLEWMGGILPILNLPNYAEKFQGRLTITADRSANIAYMELSSLRPDDTAVYYCARDRVNSSGSPYWFDPWGQGTLVTVSS
chain 2: QSVLTQPSSVSGAPGQRVTISCTGSNSNIGAGYDVHWYQQVPGIAPKLLIYANNNRPSGVPDRFSGSKSDTSASLAITGLQAEDEADYYCQSYDSSLSGSVFGGGTKLTVL
Turning to B3, in experiment [1], the “pseudovirus neutralization IC50” value was 0.0536 µg/mL. The “pseudovirus neutralization IC90” value in experiment [2] is more than 1 µg/mL. The results for the “ELISA binding EC50” value in experiment [3], in experiment [4] and in experiment [5] were 0.237 µg/mL, 0.0465 µg/mL and 0.00381 µg/mL, respectively.

B4: B1018 (protein)
chain 1: QVQLVQSGAEVKKPGASVKVSCKASGYTFNGQYMHWVRQAPGQGLEWLGWIDPNSGGTNFAQRFRGRVTMTWDTSISTAYMDLSRLRSDDTAVYYCATDTGTSWSEAEYLDYWGQGTLVTVSS
chain 2: DIQMTQSPSSLSASVGDRVTITCRASQSISSYLNWYQQKPGKAPNLLIYTTSSLQSGVPSRFSGSGSGTDFTFTISSLRPEDFATYYCQQSYSTPPITFGPGTRLEIK
As to B4, in experiment [1], the “pseudovirus neutralization IC50” value was 0.0356 µg/mL. Moreover, the “pseudovirus neutralization IC90” value in experiment [2] was found to be 0.779 µg/mL. The “ELISA binding EC50” value is 0.183 µg/mL in experiment [3], 0.0271 µg/mL in experiment [4] and 0.00739 µg/mL in experiment [5].

B5: B1027 (protein)
chain 1: EVQLVESGGGLVQPGGSLRLSCVGSGFSFSRYWLHWVRQAPGKGLVWVSRIDSDGSSPVYADFVKGRFTMSRDNAKNTLYLQMNSLRAEDTAVYYCARASPGFGGLPFDYWGQGALVTVA
chain 2: SYELTQPPSVSVAPGMTARISCGVNNIGSESVHWYQQRPGQAPVLVLYYGSDRPSGIPERFSGSNSGNTATLTISRVEAGDEADYYCQLWDSSSSSDLWVFGGGTKLTVL
B5: the “pseudovirus neutralization IC50” value in experiment [1] came to 0.173 µg/mL. In addition, the “pseudovirus neutralization IC90” value in experiment [2] is more than 1 µg/mL. The “ELISA binding EC50” value in experiment [3] is 0.00888 µg/mL; in experiment [4], 0.0169 µg/mL; in experiment [5], 0.00557 µg/mL.

B6: B1019 (protein)
chain 1: EVQLVESGGRVVRPGGSLRLSCAASGFTFGDYGMSWVRQVPGKGLEWVSNINWNGGSITYADSVKGRFTVARDNTKNSLHLQMTSLRVEDTAFYYCARMSCGGDCYSLVGPTGDTWFDPWGQGTLVTVSS
chain 2: NFMLTQPHSVSESPGKTVTISCTGSSGSIASNYVHWYQQRPGSAPITVIYEDKQRPSGVPDRFSGSVDGSSNSASLTISGLKTEDEADYYCQSYDSSSHWVFGGGTKLTVL
As to B6, in experiment [1], the “pseudovirus neutralization IC50” value came to 0.0274 µg/mL. The “pseudovirus neutralization IC90” value in experiment [2] was determined as 0.238 µg/mL. Also, the “ELISA binding EC50” value was found to be 0.00642 µg/mL in experiment [3], 0.00827 µg/mL in experiment [4] and 0.00338 µg/mL in experiment [5].

B7: B1028 (protein)
chain 1: EVQLVESGGGLLQPGRSLTLSCAASGFTFDDYAMHWVRQAPGKGLEWVSGISWSGGVIDYADSVRGRFTISRDNAKESLYLHMRSLRPEDTALYYCARGSRSGSFSLRDHDYGMDVWGRGTTVTVSS
chain 2: DIVMTQSPLSLPVTPGGPASISCRSSQSLLHSNGYNYLDWYLQKPGQSPQLLISLGSNRASGVPDRFSGSGSGTDFTLKISRVEAEDVEVYYCMQGLQPPPTFGQGTKLEIK
Turning to B7, the “pseudovirus neutralization IC50” value in experiment [1] turned out to be 0.00887 µg/mL. Moreover, in experiment [2], the “pseudovirus neutralization IC90” value came out at 0.109 µg/mL. The “ELISA binding EC50” value is more than 1 µg/mL in experiment [3], 0.00956 µg/mL in experiment [4] and 0.00287 µg/mL in experiment [5].

B8: B1023 (protein)
chain 1: QVQLQQWGAGLLKPSETLSLTCAVSGGSFSGYYWNWIRQPPGKGLEWIGEINHSGSTNYNPSLKSRVTISLDTSKNHFALKLTSVTAADTAVYYCATAEYNSSWYDAFDLWGQGTMVTVSS
chain 2: QSVLTQPPSASGTPGQRVTISCSGSSSNIGSNPVNWYQQVPGRAPKLLIYSRNQRPSGVPDRFSGSWSGTSASLAISGLQSEDEAEYYCAAWGGNVNGWVFGGGTKLTVL
On to B8, for which the “pseudovirus neutralization IC50” value in experiment [1] was found to be 0.0184 µg/mL. Besides, in experiment [2], the “pseudovirus neutralization IC90” value stood at 0.0725 µg/mL. For the same molecule, the “ELISA binding EC50” value was more than 1 µg/mL in experiment [3], 0.0442 µg/mL in experiment [4] and 0.00322 µg/mL in experiment [5].

B9: B1030 (protein)
chain 1: QVQLVQSGAEVKKPGASVRVSCKASGYTFTSYYMHWVRQAPGQGLEWMGIINPSDGGASYAQKFQGRVTMTSDTSTSTVYMELSSLRSEDTAVYYCARALRHHSSGWYSALDFQHWGQGTLVTVSS
chain 2: not shown
As to B9, in experiment [1], the “pseudovirus neutralization IC50” value came out at 0.00118 µg/mL. Also, in experiment [2], the “pseudovirus neutralization IC90” value amounted to 0.0136 µg/mL. The “ELISA binding EC50” value is 0.0585 µg/mL in experiment [3], 0.0152 µg/mL in experiment [4] and 0.00241 µg/mL in experiment [5].

B10: B1026 (protein)
chain 1: QMQLVQSGPEIKKPGTSVKVSCKASGFTFSNSAVQWVRQARGQRLEWIGWIVVGSGDPNYAQKFQERVTLTRDMSTSTAYMELSSLRSEDTAVYYCATNHCSRTICSDGFDIWGQGTVVTVSS
chain 2: EIVLTQSPVSLSLSPGERATLSCRASQTVRSSYFVWYQQKLGQAPRLLIYSASSRAAGIPDRFSGSGSGTDFTLTISRLEPEDFAVYYCQQYGSSPWTFGQGTKVEIK
In the case of B10, in experiment [1], the “pseudovirus neutralization IC50” value stood at 0.00257 µg/mL. Moreover, in experiment [2], the “pseudovirus neutralization IC90” value is 0.0165 µg/mL. For the same molecule, the results for the “ELISA binding EC50” value in experiment [3], in experiment [4] and in experiment [5] were 0.274 µg/mL, 0.0216 µg/mL and 0.00265 µg/mL, respectively.

B11: B1025 (protein)
chain 1: QVQLQESGPGLMKPSETLSLTCTVSGGSVRSGNFHWNWIRQSPGKGLEWIGHMHYTGSPSYNPSLKSRVTILLDTSKNQFSLRLSSVTAADTAVYFCARDTRYYDRSGYVRSDGMDVWGQGTTVTVSS
chain 2: DIQMTQSPSTLSASVGDRVSMTCRASQTIGSWLAWYQQKPGNAPKLLIYEASSLQSGVPSRFSGSGSGTEFTLTISSLQPDDFASYYCQQYNSYPVTFGQGTKLEIK
As to B11, the “pseudovirus neutralization IC50” value in experiment [1] was 0.0197 µg/mL. In addition, in experiment [2], the “pseudovirus neutralization IC90” value was 0.115 µg/mL. Also, the “ELISA binding EC50” value in experiment [3] came out at 0.0107 µg/mL; in experiment [4], 0.00791 µg/mL; in experiment [5] it was 0.00386 µg/mL.

B12: B1021 (protein)
chain 1: EVQLVQSGAEVKKPGESLKISCKGSGYSFISNWIGWVRQMPGKGLEWMGIIYPSDSDTIYSPSFQGQVTISADKSISTAYLHWSSLKASDTAIYYCARRESGSYSGYFDLWGRGTLVTVSS
chain 2: QSVLTQPPSASGTPGQRVTISCSGSSSNIGGTPVSWYQQLPGTAPKLVIYNNNQRPSGVPARFSGSKSGTSASLAISGLQSEDEADYYCAAWDDSLNGVFGGGTKLTVL
Consider B12, for which, in experiment [1], the “pseudovirus neutralization IC50” value came out at 0.383 µg/mL. The “pseudovirus neutralization IC90” value in experiment [2] is more than 1 µg/mL. Moreover, the “ELISA binding EC50” value amounted to 0.0487 µg/mL in experiment [3], 0.00467 µg/mL in experiment [4] and 0.00317 µg/mL in experiment [5].

B13: B2098 (protein)
chain 1: EVQLLESGGALVQPGGSLRLSCAASGFTFSTYAMSWVRQAPGKGLEWVSGLTSSGGRPYYADSVKGRFTVSRDISKNTLYLQMNSLRVEDTAVYYCAKDRGSYSGYDFLSDSWGQGTLVTVSS
chain 2: DIVMTQSPDSLAVSLGERATINCKSSQSVLYTSNNKNYLAWFQQKPGQPPKLLIYWASTRESGVPDRFSGSGSGTDFTLTISSLQAEDVAAYYCQQYYNTPITFGQGTRLEIK
For B13, in experiment [1], the “pseudovirus neutralization IC50” value came to 0.00316 µg/mL. For the same molecule, in experiment [2], the “pseudovirus neutralization IC90” value was found to be 0.0265 µg/mL. In addition, the “ELISA binding EC50” value in experiment [3] worked out at 0.00896 µg/mL; in experiment [4] it was 0.0559 µg/mL; in experiment [5], 0.00527 µg/mL.

B14: B1024 (protein)
chain 1: QVQLVQSGAEVKKSGSSVKVSCKASGGIFSRLAISWVRQAPGQGLEWMGGIIPVFATTNYAQKFQGRVTITADESASTVYMELSSLRSEDTAVYFCARALYYYDRSGRTRMEDYFDYWGQGTLVTVSS
chain 2: QSVLTQPPSVSGAPGQRVTISCTGSSSNIGAPSDVHWYQQLPGTAPKLLIYGNSNRPSGVPDRFSGSKSGTSASLAITGLQAEDEADYYCQSYDSSLSAPYVFGTGTKVTVL
With B14, the “pseudovirus neutralization IC50” value in experiment [1] is 0.0755 µg/mL. Besides, in experiment [2], the “pseudovirus neutralization IC90” value came out at 0.372 µg/mL. In addition, the “ELISA binding EC50” value in experiment [3] was determined as 0.00998 µg/mL; in experiment [4], 0.0178 µg/mL; in experiment [5], 0.002 µg/mL.
